The values that follow come from the RNAGym collection of RNA variant scans (doi:10.1093/nar/gkz1192).

Read counts are not given, so values of variants with three or more changes are uncertain.

The labels stand for the following.
B1: CPEB3 Ribozyme (parent)
chain: UAACAGGGGGCCACAGCAGAAGCGUUCACGUCGCAGCCCCUGUCAGAUUCUGGUGAAUCUGCGAAUUCUGCUGUAUAUCUC

The data set covers variants of B1. As to the kind of experiment: self-cleavage, relative activity (ratio to wild type); higher = more cleavage; in vitro, sequencing. The method in brief:
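CPEB3 self-cleaving ribozyme mutant libraries were made by rounds of error-prone PCR, barcoded, and transcribed in vitro with T7 RNA polymerase for 5 hours at 37°C. Cleavage occurred during transcription and a 15 min DNase I step before EDTA stop. RNAs were reverse transcribed with template switching and Illumina-sequenced, with DNA sequencing mapping barcodes to variants. Relative activity is the variant's cleaved/total read fraction divided by wild type's (minimum 5 reads), averaged across three batches.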
Consider A47G G70U U72C, for which the self-cleavage amounted to 0.41.
Consider A47G U48C U54A, for which the self-cleavage worked out at 0.42.
In the case of A47G U48C U54C, the self-cleavage was 0.17.
Turning to U49C A57G G61U U67G U80A, the self-cleavage worked out at 0.11.
The figure for U48A U49C U66A U76C is 0.19; for U49C A57G U78C it is 0.42.
As to A47U U60C A65G, the self-cleavage is 0.14.
Turning to A45U G70A U72C U80C, the self-cleavage amounted to 0.13.
Turning to U48C U49A U51C, the self-cleavage turned out to be 0.51.
Consider A45U A56U A57G U60C, for which the self-cleavage is 0.14.
In the case of U43C U67C A77G U78C, the self-cleavage worked out at 0.11.
As to A45G U51C U76C C81U, the self-cleavage stood at 0.68.
Consider A45G U58A A64G U69C U80C, for which the self-cleavage was 0.15.
For the variant A45G A47G A57U U66A U80A, the self-cleavage was 0.07.
A45G A65G G73A: the self-cleavage came out at 0.79.
As to U43C U58C U74C, the self-cleavage was 0.12.
To C44G U49G U76C belongs 0.1; to A47U U54C U72A, 0.28; to U48C U72G U74C U76A, 0.27.
On to U48C U60A U78C, for which the self-cleavage turned out to be 0.18.
For C44U A57U G70C U80C, the self-cleavage stood at 0.07.
In the case of U48G U51A U60A A64G, the self-cleavage was determined as 0.13.
Take G46A U54C U67C U72A: the self-cleavage amounted to 0.07.
A45G U49C A65G U76C: the self-cleavage was determined as 0.14.
Consider U48C U54C G63A, for which the self-cleavage worked out at 0.52.
Consider C50A G61A U74A U80A, for which the self-cleavage is 1.04.
Consider A45G U60C C71G, for which the self-cleavage was 0.27.
Consider A45C U54C A65G, for which the self-cleavage is 0.16.
With A45U U58A U60A, the self-cleavage came to 0.26.
The figure for U48C U51C A65G U80C is 0.2; for U48C U49C U74C it is 0.42.
The figure for A45G G52A A75U is 0.83; for U49C U51A C59G U80G it is 0.11; for A47G U49A U69A U80C it is 0.1.
Consider A47G C62U U72A, for which the self-cleavage stood at 0.35.
Turning to U49C U54C A56U U67C A77G, the self-cleavage came out at 0.08.
As for U48C U49C U76C, the self-cleavage came to 0.41.
Regarding A47G U66C U78C, the self-cleavage was found to be 0.2.
To A45G U48C A65U U72A U78C belongs 0.09; to A45G U58A U76G, 0.27; to U48C U58C U76A, 0.11.
Regarding U49C U67C U72G, the self-cleavage was 0.12.
With U43C U48C A77G, the self-cleavage came to 0.23.
On to U43G U58C U72A, for which the self-cleavage amounted to 0.07.
In the case of A47G U60A U72C, the self-cleavage turned out to be 0.57.
For A45G G46U U58C, the self-cleavage was found to be 0.24.
With A47G U49C U54C A75G, the self-cleavage amounted to 0.1.
To A45G A47G U66C belongs 0.12.
Turning to U43C U58C G63U, the self-cleavage worked out at 0.13.
To A45G A57G U66C belongs 0.43.
For A45G A56G A57G U60A U78C, the self-cleavage worked out at 0.21.
With A47G A57G C59A, the self-cleavage was 0.21.
In the case of U49C U67C U78C, the self-cleavage was determined as 0.21.
For the variant A45G U49A U51C U60C A65G, the self-cleavage was 0.27.
With U48C U67C U72A, the self-cleavage was 0.35.
The figure for A47G A65G U66C U72G is 0.1.
For the variant C44U A64U U67C, the self-cleavage is 0.33.
Turning to A47G A75G U78C, the self-cleavage amounted to 0.67.
In the case of A47G U48C U60C, the self-cleavage is 0.27.
The figure for U43C U51A A57G A65G A77G is 0.28; for C50U A56G U60A U80C it is 0.33.
In the case of U49C U54A G61U, the self-cleavage is 0.18.
The figure for A47U U69A U74C A75U is 0.22; for A45G G53C U54A U66C it is 0.56.
For the variant A47G U51G U74C, the self-cleavage was 1.08.
To U49A U58A U74C belongs 0.21.
As for A45U U72A U74C, the self-cleavage is 0.38.
Consider A47C U49C U69A U80A, for which the self-cleavage came to 0.09.
Consider A47G U58C U67C U72A A77G, for which the self-cleavage was 0.16.
As to U48C U49C G55A A56G, the self-cleavage amounted to 0.31.
As for A45C U51A U66C U67C, the self-cleavage stood at 0.15.
For the variant A45G A56G U60C, the self-cleavage was determined as 0.89.
Turning to A45U U60A U74C, the self-cleavage came out at 1.22.
Turning to A47U A56C U67C C79A, the self-cleavage was found to be 0.06.
As to A45U U69A A77U, the self-cleavage was determined as 0.34.
With A45G A57U U60G U66C, the self-cleavage is 0.1.
As for U48C A56G A65G, the self-cleavage is 0.35.
On to C50A A57G U69A U78C, for which the self-cleavage worked out at 0.3.
With A45G A57G U58A U67C U72C, the self-cleavage came out at 0.28.
In the case of A47G U54G U69A U76C, the self-cleavage is 0.2.
Consider A45U U49C A56U, for which the self-cleavage was 0.25.
For the variant U49C A57G U72A, the self-cleavage is 0.11.
In the case of U49C G55A U60C, the self-cleavage is 0.13.
With U43C G55A A75G, the self-cleavage turned out to be 0.2.
The figure for U48C A57U U74C U78A is 0.72; for A45C U51C A64G it is 0.21.
As to C44G C50G U58C U60A U67C, the self-cleavage came out at 0.05.
A45G U69C U72G: the self-cleavage was found to be 0.44.
On to U49A U51C A65G, for which the self-cleavage stood at 0.2.
Consider U49C U51A U54C, for which the self-cleavage stood at 0.38.
For U43C G55U U72A, the self-cleavage came out at 0.33.
U49C U66A U80C: the self-cleavage is 0.14.
On to A47U A64U U74C, for which the self-cleavage was 0.2.
For the variant A47U A57G U60A G63A, the self-cleavage came to 0.14.
A45C A56U A64U U72A: the self-cleavage came out at 0.16.
For A45G A64U U74C, the self-cleavage stood at 0.35.
As to U48C A56U A64G U72C, the self-cleavage turned out to be 0.35.
To A45U U51A U58C belongs 0.17; to A47G U49C G53A, 0.44; to U49C G52A U60C, 0.14.
The figure for A45G U54C A57G U80A is 0.4; for U49C U51A A56U U69C it is 0.22.
As to U49C U54C U58C U74C A75G, the self-cleavage came out at 0.16.
With A45G U60C C62U U78A, the self-cleavage is 0.08.
For the variant A45U U66C U78C, the self-cleavage stood at 0.21.
For the variant G46C A47G C68A U72C, the self-cleavage was 0.11.
For A47G U49C U60C, the self-cleavage is 0.17.
On to U43C U69A A75U, for which the self-cleavage was determined as 0.17.
As to U48C A56U U72A U78C, the self-cleavage amounted to 0.12.
The figure for C44U A45G A57G is 0.23.
Regarding A47G U49A A57G, the self-cleavage is 0.23.
Consider U43C U54C U67C, for which the self-cleavage is 0.27.
For A47G U66A G70A, the self-cleavage stood at 0.86.
As for A45G U54A C62A U69A, the self-cleavage turned out to be 0.35.
As for A47G U51A U58A A64U, the self-cleavage was determined as 0.11.
With A47G U48A U67C, the self-cleavage is 0.18.
To A47G U49C U51C G52C A65G U72G belongs 0; to U43C U49A U80C, 0.48; to A45G G63A A64C, 0.36.
As to A45G U48C U58G U67C, the self-cleavage is 0.11.
To A45C G63A A65U U67C U72C belongs 0.17; to U49C U60C U80C, 0.11; to A47G U51C A56G A65G A77G, 0.28.
The figure for A47G U48C U51A is 0.23; for A47G U48C U51C it is 0.15; for U43C U49C U78C it is 0.27.
With A45C A65C U72C, the self-cleavage turned out to be 0.15.
To A45G A47G A77G belongs 0.25; to U51A A56G G61A, 0.63; to U49C U60A U78C, 0.12.
To U49C U60A U78A belongs 0.17.
With A45U A47G U51A A57G, the self-cleavage amounted to 0.17.
In the case of A47G U54C U69C, the self-cleavage was 0.45.
Regarding A45G U72C U78C, the self-cleavage amounted to 1.08.
On to U49C A64G U74C, for which the self-cleavage is 0.24.
As to A45C G63U U78C, the self-cleavage stood at 0.21.
Consider C44U C62U U76A, for which the self-cleavage amounted to 0.14.
As for U43C U54G U69C U72A, the self-cleavage turned out to be 0.08.
With A47G U48C A65G U67C, the self-cleavage turned out to be 0.25.
With U48C U51C A56U U80A, the self-cleavage was found to be 0.32.
In the case of C44A U48C U78A, the self-cleavage came out at 0.12.
In the case of G46U U49A U54C U60C, the self-cleavage was 0.15.
To A47G U66C U72C belongs 0.51.
The figure for A47G U69A U76C is 0.86; for C44G A64G A65G it is 0.18.
For the variant U49A A65G U67C C68A, the self-cleavage came to 0.4.
For A45C U49C U54C U74C, the self-cleavage turned out to be 0.25.
In the case of A45G A56U C59G A64U U72C, the self-cleavage was 0.11.
U49C A56G C62U A64G A65G: the self-cleavage was 0.12.
As to U49C A56U U58G U60C U72G U78C, the self-cleavage amounted to 0.1.
As for A45G A47U U49C A57G U78C, the self-cleavage came out at 0.2.
Take C50U U54C U72A: the self-cleavage came to 0.9.
As to U49C U54A U80C, the self-cleavage came out at 0.48.
U43C U54C A64G U66C U69C A77G: the self-cleavage is 0.23.
Consider U43C U51C A65G, for which the self-cleavage amounted to 0.79.
To U43C U60C U69A U80A belongs 0.15.
Regarding U43C U54A A56U U66C, the self-cleavage was 0.08.
The figure for U43C U48C U60A is 0.15.
To A45U U54C U69A belongs 0.12; to A45U G63U U66C A75G, 0.1; to C50U A57U A64C, 0.14.
A45G U48C U51A A65G U67A U72C: the self-cleavage amounted to 0.36.
Turning to A47G U69G U80C, the self-cleavage amounted to 0.81.
With C44G U49A U76C A77G, the self-cleavage was 0.12.
To A45U U51A G53A U58G belongs 0.06; to A47U U48A U78C, 0.38.
For the variant A47G U60A A77G, the self-cleavage turned out to be 0.47.
